Experimental data from patent publication US20100210602A1, “PhoU (PerF), A P[…] INVOLVED IN [sequence] FORMATION AND TOLERANCE TO MULTIPLE ANTIBIOTICS AND [sequence] AS A DRUG TARGET FOR [sequence] BACTERIA” (priority 2006, published 2010).

Test system: W3110ΔphoU
Assay type: cell-based
Conditions: ampicillin 100 ug/ml, Fe3+ 250 uM

Structure (SMILES): CC1(C)S[C@@H]2[C@H](NC(=O)[C@H](N)c3ccccc3)C(=O)N2[C@H]1C(=O)O [Ampicillin, ampicillin]
- CFU after ampicillin exposure (Pi 0.01 mM): 1 × 10^8 CFU
- CFU after ampicillin exposure (Pi 2 mM): 1 × 10^7 CFU

Where two headings read alike, the source gives them in different places.
